{"source": "PubChem BioAssay AID1347073", "about": "(National Center for Advancing Translational Sciences (NCATS), 2019)", "note": "The whole screen tested about 45,000 compounds, of which about 200 (0.44%) were called active. Another 7% or so got no clear call; they are omitted. Calls follow the shape of the dose curve; as a rule, active = well fitted activation curve with a large enough effect; inconclusive = small, poorly fitted or top-dose-only effect; inactive = no such curve, though single readings can be large or run the other way. Some of the results follow."}
{"assay": "qHTS of TDP-43 Inhibitors: NCGC Sytravon Library Screen; also: 0% is about no effect; nearly all actives have a fitted effect of over 55% in size", "settings": "yeast TDP-43 toxicity rescue, BacTiter-Glo growth, 24 h; series mostly up to 46.1 µM; growth rescue (activation): at the top concentration", "how_it_was_run": "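TDP-43-expressing yeast, pregrown in raffinose, seeded at OD600 0.02 in galactose medium with compound for 24 hr at 30 deg C. Growth read by BacTiter-Glo luminescence, so rescue of toxicity appears as activation.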"}
{"smiles": "Cn1c(SCC(=O)NC(=O)NCc2ccccc2)nnc1C(F)(F)F", "growth rescue (activation)": "inactive: 3.57%"}
{"smiles": "COc1ccc(OC)c(/C=N/NC(=O)C(=O)N2CCCC2)c1", "growth rescue (activation)": "inactive: -13.4%"}
{"smiles": "COc1ccc(N(C(=O)C2COc3ccccc3O2)C(C(=O)NC2CCCCC2)c2ccccc2)cc1OC", "note": "(configuration not stated)", "growth rescue (activation)": "inactive: 14.6%"}
{"smiles": "COc1ccc(/C=C2\\SC(=S)N(CCC(=O)Nc3ccccc3C(=O)O)C2=O)cc1", "growth rescue (activation)": "inactive: -2.71%"}
{"smiles": "O=C1Nc2ccc(S(=O)(=O)NCCC3=CCCCC3)c3cccc1c23", "growth rescue (activation)": "inactive: 7.05%"}
{"smiles": "Cc1ccc(CNC(=O)C(OC(=O)c2cccs2)C(C)C)cc1", "note": "(configuration not stated)", "growth rescue (activation)": "inactive: -5.78%"}
{"smiles": "CCN(CC)c1ccc2c(C)c(Cl)c(=O)oc2c1", "growth rescue (activation)": "inactive: 25.7%"}
{"smiles": "O=C(Nc1ccc2c(c1)CCO2)Nc1nnc([C@H]2C[C@H](O)[C@@H](CO)O2)s1", "growth rescue (activation)": "inactive: -7.44%"}
{"smiles": "CCCCCn1c(=O)[nH]c2cc(C(=O)N3CCN(c4ccc(C(C)=O)cc4)CC3)ccc2c1=O", "growth rescue (activation)": "inactive: 7.05%"}
{"smiles": "Cc1ccc(N(C(=O)c2snc(C(N)=O)c2N)C(C(=O)NCC2CCCO2)c2ccc3ncccc3c2)cc1", "note": "(configuration not stated)", "growth rescue (activation)": "inactive: 4.05%"}
{"smiles": "O=C(NCCC1=CCCCC1)C1CCC(CNc2c(N3CCCCC3)c(=O)c2=O)CC1", "note": "(configuration not stated)", "growth rescue (activation)": "inactive: 23.3%"}
{"smiles": "O=C(N/N=C/c1cccc(Br)c1)C1CC(=O)N(c2ccccc2)C1", "note": "(configuration not stated)", "growth rescue (activation)": "inactive: 16.4%"}
{"smiles": "COc1ccc(NC(=O)/C=C/c2ccc(OC(F)F)cc2)cn1", "growth rescue (activation)": "inactive: 7.14%"}
{"smiles": "Oc1c(C(Nc2nccs2)c2ccc(C(F)(F)F)cc2)ccc2cccnc12", "note": "(configuration not stated)", "growth rescue (activation)": "inactive: -70.3%"}
{"smiles": "CN(Cc1nc(-c2ccccc2)no1)C(=O)c1ccc2c(c1)OCO2", "growth rescue (activation)": "inactive: -6.92%"}
{"smiles": "O=C(NCCc1ccc2c(c1)OCCO2)c1cc(S(=O)(=O)N2CCCC2)ccc1Cl", "growth rescue (activation)": "inactive: 16.8%"}
{"smiles": "CC(C)C[C@@H](NC(=O)C1CCC(CNC(=O)[C@@H]2CCCN2C(=O)OC(C)(C)C)CC1)C(=O)O", "note": "(some centres not stated)", "growth rescue (activation)": "inactive: -21.1%"}
{"smiles": "O=C(N/N=C/c1ccc(Cl)cc1Cl)c1cccc(N2CCCC2=O)c1", "growth rescue (activation)": "inactive: 2.22%"}
{"smiles": "C=C1CCC[C@]2(C)C[C@H]3OC(=O)C(CN(C)CC(OC)OC)[C@H]3CC12", "note": "(some centres not stated)", "growth rescue (activation)": "inactive: -4.4%"}
{"smiles": "CCc1nc2c(OCc3ccc(Cl)cc3)cccn2c1N(C=O)Cc1ccc(OC)cc1", "growth rescue (activation)": "inactive: -6.34%"}
{"smiles": "CCOc1cc(CNCC2CCCN2CC)cc(Cl)c1OC", "note": "(configuration not stated)", "growth rescue (activation)": "inactive: 7.68%"}
{"smiles": "CC(=O)NC12CC3CC(C1)CC(C(=O)NCc1ccc(C)cc1)(C3)C2", "growth rescue (activation)": "inactive: -32.1%"}
{"smiles": "COCCNC(=O)CN(Cc1ccco1)C(=O)CCC(=O)Nc1nccs1", "growth rescue (activation)": "inactive: 2.54%"}
{"smiles": "COc1ccc(/C=N/NC(=O)CN2CCSCC2)c(OC)c1", "growth rescue (activation)": "inactive: 5.33%"}
{"smiles": "CCCSc1ccc(C(=O)Nc2ccc(F)cc2F)cn1", "growth rescue (activation)": "inactive: 24.1%"}
{"smiles": "Cc1cc(C)n(C(=O)CNC(=O)c2cccc(Cl)c2)n1", "growth rescue (activation)": "inactive: -16.8%"}
{"smiles": "N/C(=N\\NC(=O)c1sccc1OCc1ccc(Cl)cc1Cl)c1ccccn1", "growth rescue (activation)": "inactive: 13.2%"}
{"smiles": "CC(Oc1cccc(Cl)c1)C(=O)NCCCCc1ccccc1", "note": "(configuration not stated)", "growth rescue (activation)": "inactive: 4.43%"}
{"smiles": "C/C(=N/NC(=O)c1ccc2nc[nH]c2c1)c1cccs1", "growth rescue (activation)": "inactive: 14.6%"}
{"smiles": "COC(=O)c1c(NC(=O)C2CC2)sc(C(=O)Nc2ccccc2)c1C", "growth rescue (activation)": "inactive: 25.2%"}
{"smiles": "COc1ccc(/C=N/n2cnc3scc(-c4cccs4)c3c2=O)cc1OC", "growth rescue (activation)": "inactive: 12%"}
{"smiles": "Cc1ccc(-n2c3nc(=O)n(C)c(=O)c-3cc3ccccc32)cc1", "growth rescue (activation)": "inactive: -1.04%"}
{"smiles": "Cc1ccccc1N1CCN(C2CCCN(C(=O)c3cc(C(C)C)[nH]n3)C2)CC1", "note": "(configuration not stated)", "growth rescue (activation)": "inactive: -7.1%"}
{"smiles": "CCN(CC)CCn1c2ccccc2c2nc3ccc([N+](=O)[O-])cc3cc21", "growth rescue (activation)": "inactive: -1.57%"}
{"smiles": "O=C(c1ccco1)N1CCN(C(=O)C2CC(=O)N(c3ccc(Cl)cc3)C2)CC1", "note": "(configuration not stated)", "growth rescue (activation)": "inactive: -18.2%"}
{"smiles": "Cc1cc(NS(=O)(=O)c2ccc(NC(=O)CSc3nnc(-c4ccco4)n3C)cc2)nc(C)n1", "growth rescue (activation)": "inactive: -2.6%"}
{"smiles": "Cc1ccc(CSc2ncnc3c2cnn3-c2ccccc2)cc1", "growth rescue (activation)": "inactive: 4.5%"}
{"smiles": "O=C(NNC(=O)C1CCCN(S(=O)(=O)c2ccc3ccccc3c2)C1)C1CC1", "note": "(configuration not stated)", "growth rescue (activation)": "inactive: -4.01%"}
{"smiles": "COCc1cccc(-c2csc(C(C)(NC(C)=O)c3ccccc3)n2)c1", "note": "(configuration not stated)", "growth rescue (activation)": "inactive: 3.93%"}
{"smiles": "O=C(Nc1ccc2c(c1)OCO2)C1Cc2c(-c3ccncc3)ccnc2O1", "note": "(configuration not stated)", "growth rescue (activation)": "inactive: 8.23%"}
{"smiles": "CSCCC(NC(=O)c1cccc(C)c1)C(=O)Nc1sccc1C(N)=O", "note": "(configuration not stated)", "growth rescue (activation)": "inactive: 0.336%"}
{"smiles": "COc1ccc(CCNC(=O)/C=C\\c2ccccc2)cc1OC", "growth rescue (activation)": "inactive: -0.703%"}
{"smiles": "CCSc1ncc(Cl)c(C(=O)Nc2c(C(=O)Nc3cccc(C)c3)oc3ccccc23)n1", "growth rescue (activation)": "inactive: -10.2%"}
{"smiles": "COCCn1cnnc1SCC(=O)Nc1cc(C)on1", "growth rescue (activation)": "inactive: 5.65%"}
{"smiles": "CCc1nc2ccccc2c(C(=O)OCc2nc3ccccc3c(=O)[nH]2)c1C", "growth rescue (activation)": "inactive: 14.7%"}
{"smiles": "COc1ccc(N2CCN(c3nc4c(C)cccn4c(=O)c3C=C(C#N)C#N)CC2)cc1", "growth rescue (activation)": "inactive: 12.2%"}
{"smiles": "CCCc1nnc(SCC(=O)N(CC)CC)n1CC1CCCO1", "note": "(configuration not stated)", "growth rescue (activation)": "inactive: 3.66%"}
{"smiles": "CCNC(=O)C1(C)CCCN1C(=O)c1ccc(-c2ccccc2)cc1", "note": "(configuration not stated)", "growth rescue (activation)": "inactive: 6.47%"}
{"smiles": "CN1CCCN(C(=O)c2cc(-c3ccc(Cl)c(Cl)c3Cl)nc3ccccc23)CC1", "growth rescue (activation)": "inactive: 6.46%"}
{"smiles": "COc1ccc(S(=O)(=O)N2CCC(C(=O)N3CCC(C(N)=O)CC3)CC2)cc1Cl", "growth rescue (activation)": "inactive: 6.74%"}
{"smiles": "Cc1cc(C)cc(NC(=S)N2CCC(NC(=O)C3CC3)CC2)c1", "growth rescue (activation)": "inactive: -3.32%"}
{"smiles": "CC(=O)c1ccc(OCc2nnn(CC(=O)O)c2-c2ccccc2)cc1", "growth rescue (activation)": "inactive: 17.2%"}
